Reference: patent US20240197902A1 (ACCELERON PHARMA, published 2024)

Assays:
GDF11 [1] = target: T1, GDF11 (UniProt O95390 299-407); assay: cell-based or functional assay
T1 sequence (looked up): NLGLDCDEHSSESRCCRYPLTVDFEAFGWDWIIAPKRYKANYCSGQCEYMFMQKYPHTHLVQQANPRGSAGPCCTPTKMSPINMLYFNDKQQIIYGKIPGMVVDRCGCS

activin B [2] = target: T2, activin B (UniProt P09529 293-407); assay: cell-based or functional assay
T2 sequence (looked up): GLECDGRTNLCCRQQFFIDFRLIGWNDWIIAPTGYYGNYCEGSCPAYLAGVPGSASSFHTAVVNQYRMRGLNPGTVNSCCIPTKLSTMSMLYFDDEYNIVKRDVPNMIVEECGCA

BMP10 [3] = target: T3, BMP10 (UniProt O95393 317-424); assay: cell-based or functional assay
T3 sequence (looked up): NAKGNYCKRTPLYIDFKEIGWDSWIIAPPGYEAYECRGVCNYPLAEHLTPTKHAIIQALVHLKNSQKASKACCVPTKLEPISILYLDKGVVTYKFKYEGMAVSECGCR

activin A [4] = target: T4, activin A (UniProt P08476 311-426); assay: cell-based or functional assay
T4 sequence (looked up): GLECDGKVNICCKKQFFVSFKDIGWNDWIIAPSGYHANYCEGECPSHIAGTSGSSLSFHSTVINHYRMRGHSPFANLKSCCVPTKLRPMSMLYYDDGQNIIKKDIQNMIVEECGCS

GDF8 [5] = target: T5, GDF8 (UniProt O14793 267-375); assay: cell-based or functional assay
T5 sequence (looked up): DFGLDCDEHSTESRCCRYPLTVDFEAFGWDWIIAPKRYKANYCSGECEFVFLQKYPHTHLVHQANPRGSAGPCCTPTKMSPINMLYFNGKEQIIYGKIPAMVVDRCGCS

GDF11 [6] = target: T1, GDF11; assay: SPR (Biacore), Fc fusion captured by anti-Fc antibody
activin AC = target: T6, activin AC (UniProt P08476 311-426; P55103 237-352); assay: as above
T6 construct: Heterodimer of beta A and beta C subunits
T6 sequence (looked up) 1: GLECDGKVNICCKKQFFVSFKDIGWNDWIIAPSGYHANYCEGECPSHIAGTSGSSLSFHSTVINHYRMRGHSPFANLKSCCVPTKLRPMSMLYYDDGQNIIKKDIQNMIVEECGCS
T6 sequence (looked up) 2: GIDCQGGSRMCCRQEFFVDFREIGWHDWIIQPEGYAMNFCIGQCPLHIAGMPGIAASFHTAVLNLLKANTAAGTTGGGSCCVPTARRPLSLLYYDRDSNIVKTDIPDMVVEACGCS

BMP6 [7] = target: T7, BMP6 (UniProt P22004 375-513, limits assumed); assay: as above
T7 sequence (looked up): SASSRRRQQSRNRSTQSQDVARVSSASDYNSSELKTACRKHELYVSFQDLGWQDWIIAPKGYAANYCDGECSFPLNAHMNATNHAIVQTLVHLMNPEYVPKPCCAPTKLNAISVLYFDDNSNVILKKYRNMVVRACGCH

GDF8 [8] = target: T5, GDF8; assay: as above
activin B [9] = target: T2, activin B; assay: as above
GDF3 [10] = target: T8, GDF3 (UniProt Q9NR23 251-364); assay: as above
T8 sequence (looked up): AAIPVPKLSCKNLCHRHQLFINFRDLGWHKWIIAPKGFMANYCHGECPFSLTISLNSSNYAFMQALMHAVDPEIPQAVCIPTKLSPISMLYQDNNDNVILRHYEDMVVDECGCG

BMP10 [11] = target: T3, BMP10; assay: as above
BMP9 [12] = target: T9, BMP9 (UniProt Q9UK05 320-429); assay: as above
T9 construct: also called GDF2
T9 sequence (looked up): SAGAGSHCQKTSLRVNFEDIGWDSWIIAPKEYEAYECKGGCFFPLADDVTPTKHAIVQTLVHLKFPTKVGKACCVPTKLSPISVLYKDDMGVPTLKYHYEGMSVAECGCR

activin A [13] = target: T4, activin A; assay: as above
BMP5 = target: T10, BMP5 (UniProt P22003 317-454, limits assumed); assay: as above
T10 sequence (looked up): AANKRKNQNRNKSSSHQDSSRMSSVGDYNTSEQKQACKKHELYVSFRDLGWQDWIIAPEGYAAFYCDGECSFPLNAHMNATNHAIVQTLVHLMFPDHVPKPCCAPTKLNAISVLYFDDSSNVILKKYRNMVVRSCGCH

GDF11 [14] = target: T1, GDF11; assay: SPR (Biacore), Fc fusion captured by anti-Fc antibody, 37 C
BMP6 [15] = target: T7, BMP6; assay: as above
GDF8 [16] = target: T5, GDF8; assay: as above
activin B [17] = target: T2, activin B; assay: as above
GDF3 [18] = target: T8, GDF3; assay: as above
BMP10 [19] = target: T3, BMP10; assay: as above
BMP9 [20] = target: T9, BMP9; assay: as above
activin A [21] = target: T4, activin A; assay: as above

B1: ActRIIB(L79H-F82I)-G1Fc (Fc fusion)
chain: GRGEAETRECIYYNANWELERTNQSGLERCEGEQDKRLHCYASWRNSSGTIELVKKGCWHDDINCYDRQECVATEENPQVYFCCCEGNFCNERFTHLPEAGGPEVTYEPPPTAPTG[gap - human IgG1 Fc and a few adjoining residues]
modifications: Homodimeric Fc fusion; one copy of the chain given
- IC50, A204 CAGA12 reporter gene assay (GDF11 [1]): 0.36 nM
- IC50, A204 CAGA12 reporter gene assay (activin B [2]): 0.15 nM
- IC50, A204 CAGA12 reporter gene assay (BMP10 [3]): > 100 nM
- IC50, A204 CAGA12 reporter gene assay (activin A [4]): > 100 nM

B2: ActRIIB(F82I-N83R)-G1Fc (Fc fusion)
chain: GRGEAETRECIYYNANWELERTNQSGLERCEGEQDKRLHCYASWRNSSGTIELVKKGCWLDDIRCYDRQECVATEENPQVYFCCCEGNFCNERFTHLPEAGGPEVTYEPPPTAPTG[gap - human IgG1 Fc and a few adjoining residues]
modifications: Homodimeric Fc fusion; one copy of the chain given
- IC50, A204 CAGA12 reporter gene assay (GDF11 [1]): 9.95 nM
- IC50, A204 CAGA12 reporter gene assay (activin B [2]): 0.08 nM
- IC50, A204 CAGA12 reporter gene assay (BMP10 [3]): 13.2 nM
- IC50, A204 CAGA12 reporter gene assay (activin A [4]): 1.67 nM

B3: ActRIIB(F82K-N83R)-G1Fc (Fc fusion)
chain: GRGEAETRECIYYNANWELERTNQSGLERCEGEQDKRLHCYASWRNSSGTIELVKKGCWLDDKRCYDRQECVATEENPQVYFCCCEGNFCNERFTHLPEAGGPEVTYEPPPTAPTG[gap - human IgG1 Fc and a few adjoining residues]
modifications: Homodimeric Fc fusion; one copy of the chain given
- IC50, A204 CAGA12 reporter gene assay (activin B [2]): 0.09 nM
- IC50, A204 CAGA12 reporter gene assay (BMP10 [3]): 0.53 nM
- IC50, A204 CAGA12 reporter gene assay (activin A [4]): 1.32 nM

B4: ActRIIB(F82T-N83R)-G1Fc (Fc fusion)
chain: GRGEAETRECIYYNANWELERTNQSGLERCEGEQDKRLHCYASWRNSSGTIELVKKGCWLDDTRCYDRQECVATEENPQVYFCCCEGNFCNERFTHLPEAGGPEVTYEPPPTAPTG[gap - human IgG1 Fc and a few adjoining residues]
modifications: Homodimeric Fc fusion; one copy of the chain given
- IC50, A204 CAGA12 reporter gene assay (GDF11 [1]): 17.9 nM
- IC50, A204 CAGA12 reporter gene assay (activin B [2]): 0.11 nM
- IC50, A204 CAGA12 reporter gene assay (BMP10 [3]): 12.6 nM
- IC50, A204 CAGA12 reporter gene assay (activin A [4]): 1.52 nM

B5: ActRIIB(L79H)-G1Fc (Fc fusion)
chain: GRGEAETRECIYYNANWELERTNQSGLERCEGEQDKRLHCYASWRNSSGTIELVKKGCWHDDFNCYDRQECVATEENPQVYFCCCEGNFCNERFTHLPEAGGPEVTYEPPPTAPTG[gap - human IgG1 Fc and a few adjoining residues]
modifications: Homodimeric Fc fusion; one copy of the chain given
- IC50, A204 CAGA12 reporter gene assay (GDF11 [1]): 0.24 nM
- IC50, A204 CAGA12 reporter gene assay (GDF8 [5]): 5.76 nM
- IC50, A204 CAGA12 reporter gene assay (activin B [2]): 0.07 nM
- IC50, A204 CAGA12 reporter gene assay (BMP10 [3]): > 100 nM
- IC50, A204 CAGA12 reporter gene assay (activin A [4]): > 10 nM

B6: ActRIIB(L79H-F82K)-G1Fc (Fc fusion)
chain: GRGEAETRECIYYNANWELERTNQSGLERCEGEQDKRLHCYASWRNSSGTIELVKKGCWHDDKNCYDRQECVATEENPQVYFCCCEGNFCNERFTHLPEAGGPEVTYEPPPTAPTG[gap - human IgG1 Fc and a few adjoining residues]
- IC50, A204 CAGA12 reporter gene assay (GDF11 [1]): > 100 nM
- IC50, A204 CAGA12 reporter gene assay (activin B [2]): 0.1 nM
- IC50, A204 CAGA12 reporter gene assay (BMP10 [3]): > 100 nM

B7: ActRIIB-Fc homodimer (Fc fusion)
chain: GRGEAETRECIYYNANWELERTNQSGLERCEGEQDKRLHCYASWRNSSGTIELVKKGCWLDDFNCYDRQECVATEENPQVYFCCCEGNFCNERFTHLPEAGGPEVTYEPPPTAPTG[gap - human IgG1 Fc and a few adjoining residues]
- Kd (GDF11 [6]): 0.002 nM
- koff (GDF11 [6]): 0.00015 s⁻¹
- kon (GDF11 [6]): 9.6e+07 M⁻¹ s⁻¹
- Kd (activin AC): 0.16 nM
- koff (activin AC): 0.0031 s⁻¹
- kon (activin AC): 2e+07 M⁻¹ s⁻¹
- Kd (BMP6 [7]): 0.16 nM
- koff (BMP6 [7]): 0.0039 s⁻¹
- kon (BMP6 [7]): 2.4e+07 M⁻¹ s⁻¹
- Kd (GDF8 [8]): 0.069 nM
- koff (GDF8 [8]): 0.00024 s⁻¹
- kon (GDF8 [8]): 3.5e+06 M⁻¹ s⁻¹
- Kd (activin B [9]): 0.008 nM
- koff (activin B [9]): 0.00016 s⁻¹
- kon (activin B [9]): 1.5e+07 M⁻¹ s⁻¹
- Kd (GDF3 [10]): 1.5 nM
- koff (GDF3 [10]): 0.0022 s⁻¹
- kon (GDF3 [10]): 1.4e+06 M⁻¹ s⁻¹
- Kd (BMP10 [11]): 0.025 nM
- koff (BMP10 [11]): 0.00015 s⁻¹
- kon (BMP10 [11]): 5.9e+06 M⁻¹ s⁻¹
- Kd (BMP9 [12]): 0.01 nM
- koff (BMP9 [12]): 0.0012 s⁻¹
- kon (BMP9 [12]): 1.2e+08 M⁻¹ s⁻¹
- Kd (activin A [13]): 0.011 nM
- koff (activin A [13]): 0.00014 s⁻¹
- kon (activin A [13]): 1.3e+07 M⁻¹ s⁻¹
- Kd (BMP5): 2.9 nM
- koff (BMP5): 0.075 s⁻¹
- kon (BMP5): 2.6e+07 M⁻¹ s⁻¹
- Kd (GDF11 [14]): 0.004 nM
- koff (GDF11 [14]): 0.00017 s⁻¹
- kon (GDF11 [14]): 4.1e+07 M⁻¹ s⁻¹
- Kd (BMP6 [15]): 0.056 nM
- koff (BMP6 [15]): 0.0074 s⁻¹
- kon (BMP6 [15]): 1.3e+08 M⁻¹ s⁻¹
- Kd (GDF8 [16]): 0.07 nM
- koff (GDF8 [16]): 0.00026 s⁻¹
- kon (GDF8 [16]): 3.8e+06 M⁻¹ s⁻¹
- Kd (activin B [17]): 0.008 nM
- koff (activin B [17]): 6.6e-05 s⁻¹
- kon (activin B [17]): 8.1e+06 M⁻¹ s⁻¹
- Kd (GDF3 [18]): 1.5 nM
- koff (GDF3 [18]): 0.0022 s⁻¹
- kon (GDF3 [18]): 1.4e+06 M⁻¹ s⁻¹
- Kd (BMP10 [19]): 0.004 nM
- koff (BMP10 [19]): 0.0002 s⁻¹
- kon (BMP10 [19]): 5.1e+07 M⁻¹ s⁻¹
- Kd (BMP9 [20]): 0.25 nM
- koff (BMP9 [20]): 0.0013 s⁻¹
- kon (BMP9 [20]): 5e+06 M⁻¹ s⁻¹
- Kd (activin A [21]): 0.025 nM
- koff (activin A [21]): 0.00019 s⁻¹
- kon (activin A [21]): 7.4e+06 M⁻¹ s⁻¹
